{
  "source": "PubChem BioAssay AID463173",
  "about": "(ICCB-Longwood Screening Facility, Harvard Medical School, 2010)",
  "note": "Screen size: about 52,000 compounds; about 1,700 (3.3%) were called active. Cut-off read from the data, not from the text of the source: active = survival mostly below about 52% (no sharp cut-off); inactive = mostly above about 56%. The list shows a part of the results.",
  "data": [
    {"tested_on": "Wild type", "experiment": "growth inhibition of S. aureus wild type versus tarO mutant, primary screen, teichoic acid synthesis inhibitors, RN4220, OD600 (AID 463173)", "conditions": "S. aureus RN4220 wild type/DeltatarO growth, OD600, 18 h, active compounds read low, screened at 18.75 µg/mL (by protocol)", "values": [
      {"smiles": "COc1ccc(CNC(=O)c2oc3c(c2C)-c2nn(Cc4ccccc4Cl)cc2CC3)cc1", "survival": "inactive: 105%"},
      {"smiles": "N#Cc1cc2c(=O)n3ccccc3nc2n(-c2nnc(SCc3ccc(F)cc3)s2)c1=O", "survival": "inactive: 97%"},
      {"smiles": "COc1ccc(Cn2nnc3c(=O)[nH]c(C4CCCN(C(=O)c5ccccc5Cl)C4)nc32)cc1OC", "note": "(centres undefined)", "survival": "inactive: 90%"},
      {"smiles": "Cc1ccc(S(=O)(=O)c2cn(C)c3cc(N4CCN(c5ccccc5)CC4)c(F)cc3c2=O)cc1", "survival": "inactive: 74%"},
      {"smiles": "CCOC(=O)N1CCc2c(sc3c2c(=O)n(Cc2ccccc2)c(=O)n3Cc2cccc(Cl)c2)C1", "survival": "inactive: 103%"},
      {"smiles": "CCOC(=O)c1ccc(NC(=O)c2nc(S(=O)(=O)Cc3ccccc3)ncc2Cl)cc1", "survival": "inactive: 20%"},
      {"smiles": "COc1cc(NC(=O)C2=C(C)Nc3nnnn3C2c2ccc(SC)cc2)c(OC)cc1Cl", "note": "(centres undefined)", "survival": "inactive: 71%"},
      {"smiles": "CC1CN(C(=O)CCC(=O)NCc2cccs2)c2ccccc2O1", "note": "(centres undefined)", "survival": "inactive: 81%"},
      {"smiles": "COc1ccc(NC(=O)c2c(NCc3ccc(C)o3)sc3c2CCC(C)C3)cc1", "note": "(centres undefined)", "survival": "inactive: 136%"},
      {"smiles": "Cc1nn(CCCC(=O)NCc2ccccc2)c(=O)c2c1sc1ccccc12", "survival": "inactive: 105%"},
      {"smiles": "CC1CCCCN1S(=O)(=O)c1ccc(NC(=O)c2cnccn2)cc1", "note": "(centres undefined)", "survival": "inactive: 102%"},
      {"smiles": "Cc1ccc(-n2nc(C(=O)N3CCCCC3C)c(=O)n(C)c2=O)cc1", "note": "(centres undefined)", "survival": "inactive: 80%"},
      {"smiles": "CC1CCCCN1C(=O)CSc1nnc2c3ccccc3n(CC(=O)O)c2n1", "note": "(centres undefined)", "survival": "inactive: 109%"},
      {"smiles": "O=C(NC1CC(=O)N(c2ccccc2)C1)C1CCCC1", "note": "(centres undefined)", "survival": "inactive: 121%"},
      {"smiles": "Cc1ccc2c(c1)c(=O)c1ccccc1n2CCCC(=O)Nc1ccc(F)cc1F", "survival": "inactive: 84%"},
      {"smiles": "Cc1ccc(CSc2nc(=O)c3c(C)cc(C)nc3n2C2CC2)cc1", "survival": "inactive: 136%"},
      {"smiles": "COC(=O)c1ccc2nc(C)cc(Nc3ccc(O)cc3)c2c1", "survival": "inactive: 153%"},
      {"smiles": "CCOC(=O)c1cc(-c2ccc(F)cc2)n(CCC(=O)Nc2ccccc2OC)c1C", "survival": "inactive: 75%"},
      {"smiles": "CC(Sc1ncc(S(=O)(=O)c2ccc(C(C)C)cc2)c(N)n1)C(=O)Nc1ccccc1", "note": "(centres undefined)", "survival": "inactive: 47%"},
      {"smiles": "COc1ccc(NC(=O)Cn2c(=O)n(-c3ccc(Cl)cc3)c(=O)c3c(C)c(C(=O)N(C)C)sc32)cc1Cl", "survival": "inactive: 73%"},
      {"smiles": "CCOC(=O)c1ccc(NC(=O)C(=O)NCc2ccco2)cc1", "survival": "inactive: 80%"},
      {"smiles": "COc1cccc(Cc2nc3ccccc3nc2SCC(=O)N2CCc3ccccc32)c1", "survival": "inactive: 78%"},
      {"smiles": "Cc1cccc(Oc2nc3c(C)cccn3c(=O)c2/C=C(\\C#N)c2nc3ccccc3s2)c1", "survival": "inactive: 71%"},
      {"smiles": "COC(=O)c1cc(Cl)c(NC(=O)/C=C/c2ccc(Cl)cc2Cl)cc1OC", "survival": "inactive: 71%"},
      {"smiles": "Cc1cccc(C2NC(=O)c3c(sc4c3CCN(C)C4)N2)c1O", "note": "(centres undefined)", "survival": "inactive: 128%"},
      {"smiles": "CCOC(=O)c1ccc(NC2=CC(c3ccc(Br)cc3)N(c3ccc(C(=O)OCC)cc3)C2=O)cc1", "note": "(centres undefined)", "survival": "inactive: 125%"},
      {"smiles": "CCOc1ccc(N2CC(c3nc4ccccc4n3CCCOc3ccc(OC)cc3)CC2=O)cc1", "note": "(centres undefined)", "survival": "inactive: 66%"},
      {"smiles": "COCCNC(=O)CSc1nnc(-c2ccc(OC)c(OC)c2)c(-c2ccc(OC)c(OC)c2)n1", "survival": "inactive: 68%"},
      {"smiles": "O=S(=O)(c1ccccc1)c1nc(-c2cccc(Cl)c2)oc1NCc1ccccc1", "survival": "inactive: 97%"},
      {"smiles": "COc1ccc(Br)c2c1-c1nc(NC(=O)c3ccccc3SC)sc1C2", "survival": "inactive: 123%"},
      {"smiles": "Cc1c(C(=O)NCCN(C)C)oc2c1-c1nn(Cc3ccccc3Cl)cc1CC2", "survival": "inactive: 121%"},
      {"smiles": "CCN(CC)C(=O)Cn1c(C)c(C#N)c2ccccc21", "survival": "inactive: 103%"},
      {"smiles": "COc1ccccc1-c1c(C)nn2c(N3CCN(c4ccc(Cl)cc4)CC3)cc(C)nc12", "survival": "inactive: 77%"},
      {"smiles": "CCCCOc1ccc(S(=O)(=O)Nc2cccc(-c3ccc(N4CCOCC4)nn3)c2)cc1", "survival": "inactive: 51%"},
      {"smiles": "COc1ccc(N(CC(=O)N2CCN(c3cc(C)ccc3C)CC2)S(=O)(=O)c2c(C)noc2C)cc1", "survival": "inactive: 79%"},
      {"smiles": "CCOC(=O)c1ccc(Nc2nc(C)cc(C)n2)cc1", "survival": "inactive: 87%"},
      {"smiles": "CC(Sc1nc(-c2ccccc2)c(C#N)c(=O)[nH]1)C(=O)Nc1ccc(F)cc1", "note": "(centres undefined)", "survival": "inactive: 91%"},
      {"smiles": "Cc1ccc(-n2ncc3c(NNC(=O)c4ccccc4C)ncnc32)cc1", "survival": "inactive: 88%"},
      {"smiles": "COc1ccc(-c2c(C)nn3c(N4CCC(C(=O)NCCC(C)C)CC4)cc(C)nc23)cc1OC", "survival": "inactive: 84%"},
      {"smiles": "CC(C)c1ccc(C2c3c(-c4ccccc4O)n[nH]c3C(=O)N2CCc2ccccc2)cc1", "note": "(centres undefined)", "survival": "inactive: 64%"},
      {"smiles": "CCc1ccc(-c2[nH]c3c(c2-c2c(-n4cccc4)n(C)c(=O)n(C)c2=O)c(=O)n(C)c(=O)n3C)cc1", "survival": "inactive: 105%"},
      {"smiles": "CCN(CC)CCn1c(=N)n(CC(O)COc2ccccc2C)c2ccccc21", "note": "(centres undefined)", "survival": "inactive: 73%"},
      {"smiles": "Cc1ccc(Cn2c(=O)c3c(nc4n3CCN4c3cc(C)cc(C)c3)n(C)c2=O)cc1", "survival": "inactive: 62%"},
      {"smiles": "C=CCn1c(C(C)NC(=O)c2ccccc2Cl)n[nH]c1=S", "note": "(centres undefined)", "survival": "inactive: 98%"},
      {"smiles": "CC(C)CCn1c(SCc2ccc(F)cc2Cl)nc2ccsc2c1=O", "survival": "inactive: 69%"},
      {"smiles": "CC1=C(C(=O)Nc2ccccc2)C(c2ccc(C(=O)O)cc2)n2nc(SCC(=O)c3ccc(C)cc3)nc2N1", "note": "(centres undefined)", "survival": "inactive: 84%"},
      {"smiles": "COc1ccc(-c2nc(CCNC(=O)c3cc(OC)c(OC)c(OC)c3)cs2)cc1", "survival": "inactive: 136%"},
      {"smiles": "CCCN1CCN(CC2=C(C(=O)OCC)C(c3ccc(Cl)cc3)NC(=O)N2)CC1", "note": "(centres undefined)", "survival": "inactive: 90%"},
      {"smiles": "COc1ccc(CNC(=O)Cc2c(C)c3c(cc(C)c4c(C)coc43)oc2=O)cc1", "survival": "inactive: 89%"},
      {"smiles": "COc1ccc(Cl)cc1NC(=O)CCCn1c(=O)c2cccn2c2cccnc21", "survival": "inactive: 88%"},
      {"smiles": "COC(=O)c1c(NC(=O)c2ccc(S(=O)(=O)N3CCCCC3C)cc2)sc2c1CCN(C(C)C)C2", "note": "(centres undefined)", "survival": "inactive: 135%"},
      {"smiles": "CCOC(=O)N1CCc2c(sc(NCc3ccc(OC)c(Br)c3)c2C(=O)Nc2cc(OC)ccc2OC)C1", "survival": "inactive: 99%"},
      {"smiles": "CCOC(=O)c1ccccc1NC(=O)N(Cc1ccc(C)cc1)Cc1cccn1-c1nnc(N2CCCC2=O)s1", "survival": "inactive: 127%"},
      {"smiles": "c1ccc(CCCN2CCN(C3CCCC3)CC2)cc1", "survival": "inactive: 105%"}
    ]}
  ]
}
